# From the supplement of paper PMC8728848
# The list shows a part of the results.
# B1: MPA (Maclura pomifera), P18674 (protein)
# chain: GVTFDDGAYTGIREINFEYNSETAIGGLRVTYDLNGMPFVAEDHKSFITGFKPVKISLEFPSEYIVEVSGYVGKVEGYTVIRSLTFKTNKQTYGPYGVTNGTPFSLPIENGLIVGFKGSIGYWLDYFSIYLSL
# What was measured:
# Assay in all cases: glycan array binding signal (z-score within array); higher = stronger binding
# Conditions in all cases: glycan notation: IUPAC condensed, linker removed
# Gal(b1-2)Gal = target: Gal(b1-2)Gal
# How it was run: (§1)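 The Consortium for Functional Glycomics database supplied 3228 glycan arrays, of which those lacking an available protein sequence were dropped. The binding signal, a within-array Z-score, was averaged across arrays of the same protein sequence and across linkers. Negative scores can be read as non-binding.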
# Gal(b1-3)Gal = target: Gal(b1-3)Gal
# How it was run: as §1
# Gal(b1-3)Gal(b1-4)GlcNAc = target: Gal(b1-3)Gal(b1-4)GlcNAc
# How it was run: as §1
# Gal(b1-3)GalNAc = target: Gal(b1-3)GalNAc
# How it was run: as §1
# [1] = target: Gal(b1-3)GalNAc(a1-3)[Fuc(a1-2)]Gal(b1-4)Glc
# How it was run: as §1
# [2] = target: Gal(b1-3)GalNAc(a1-3)[Fuc(a1-2)]Gal(b1-4)GlcNAc
# How it was run: as §1
# Gal(b1-3)GalNAc(b1-3)Gal = target: Gal(b1-3)GalNAc(b1-3)Gal
# How it was run: as §1
# [3] = target: Gal(b1-3)GalNAc(b1-3)Gal(a1-4)Gal(b1-4)Glc
# How it was run: as §1
# [4] = target: Gal(b1-3)GalNAc(b1-4)Gal(b1-4)Glc
# How it was run: as §1
# [5] = target: Gal(b1-3)GalNAc(b1-4)[Neu5Ac(a2-3)]Gal(b1-4)Glc
# How it was run: as §1
# Gal(b1-3)GlcNAc = target: Gal(b1-3)GlcNAc
# How it was run: as §1
# [6] = target: Gal(b1-3)GlcNAc(a1-3)Gal(b1-4)GlcNAc
# How it was run: as §1
# [7] = target: Gal(b1-3)GlcNAc(a1-6)Gal(b1-4)GlcNAc
# How it was run: as §1
# Gal(b1-3)GlcNAc(b1-2)Man = target: Gal(b1-3)GlcNAc(b1-2)Man
# How it was run: as §1
# [8] = target: Gal(b1-3)GlcNAc(b1-2)Man(a1-3)[Gal(b1-3)GlcNAc(b1-2)Man(a1-6)]Man(b1-4)GlcNAc(b1-4)GlcNAc
# How it was run: as §1
# [9] = target: Gal(b1-3)GlcNAc(b1-2)Man(a1-3)[Gal(b1-3)GlcNAc(b1-2)Man(a1-6)]Man(b1-4)GlcNAc(b1-4)[Fuc(a1-6)]GlcNAc
# How it was run: as §1
# [10] = target: Gal(b1-3)GlcNAc(b1-2)Man(a1-3)[GlcNAc(b1-4)][Gal(b1-3)GlcNAc(b1-2)Man(a1-6)]Man(b1-4)GlcNAc(b1-4)GlcNAc
# How it was run: as §1
# [11] = target: Gal(b1-3)GlcNAc(b1-2)[Gal(b1-3)GlcNAc(b1-6)]Man(a1-6)[Gal(b1-3)GlcNAc(b1-2)Man(a1-3)]Man(b1-4)GlcNAc(b1-4)GlcNAc
# How it was run: as §1
# [12] = target: Gal(b1-3)GlcNAc(b1-3)Gal(b1-3)GlcNAc
# How it was run: as §1
# [13] = target: Gal(b1-3)GlcNAc(b1-3)Gal(b1-4)Glc
# How it was run: as §1
# [14] = target: Gal(b1-3)GlcNAc(b1-3)Gal(b1-4)GlcNAc
# How it was run: as §1
# [15] = target: Gal(b1-3)GlcNAc(b1-3)Gal(b1-4)GlcNAc(b1-2)Man(a1-3)[Gal(b1-3)GlcNAc(b1-3)Gal(b1-4)GlcNAc(b1-2)Man(a1-6)]Man(b1-4)GlcNAc(b1-4)GlcNAc
# How it was run: as §1
# [16] = target: Gal(b1-3)GlcNAc(b1-3)Gal(b1-4)GlcNAc(b1-2)[Gal(b1-3)GlcNAc(b1-3)Gal(b1-4)GlcNAc(b1-6)]Man(a1-6)[Gal(b1-3)GlcNAc(b1-3)Gal(b1-4)GlcNAc(b1-2)Man(a1-3)]Man(b1-4)GlcNAc(b1-4)[Fuc(a1-6)]GlcNAc
# How it was run: as §1
# [17] = target: Gal(b1-3)GlcNAc(b1-3)Gal(b1-4)GlcNAc(b1-3)Gal(b1-4)GlcNAc(b1-2)[Gal(b1-3)GlcNAc(b1-3)Gal(b1-4)GlcNAc(b1-3)Gal(b1-4)GlcNAc(b1-6)]Man(a1-6)[Gal(b1-3)GlcNAc(b1-3)Gal(b1-4)GlcNAc(b1-3)Gal(b1-4)GlcNAc(b1-2)Man(a1-3)]Man(b1-4)GlcNAc(b1-4)[Fuc(a1-6)]GlcNAc
# How it was run: as §1
# [18] = target: Gal(b1-3)GlcNAc(b1-3)Gal(b1-4)GlcNAc(b1-6)[Gal(b1-3)GlcNAc(b1-3)]Gal(b1-4)Glc
# How it was run: as §1
# [19] = target: Gal(b1-3)GlcNAc(b1-3)Gal(b1-4)[Fuc(a1-3)]GlcNAc
# How it was run: as §1
# [20] = target: Gal(b1-3)GlcNAc(b1-3)Gal(b1-4)[Fuc(a1-3)]GlcNAc(b1-6)[Gal(b1-3)GlcNAc(b1-3)]Gal(b1-4)Glc
# How it was run: as §1
# [21] = target: Gal(b1-3)GlcNAc(b1-3)GalNAc
# How it was run: as §1
# [22] = target: Gal(b1-3)GlcNAc(b1-6)Gal(b1-4)GlcNAc
# How it was run: as §1
# [23] = target: Gal(b1-3)GlcNAc(b1-6)GalNAc
# How it was run: as §1
# [24] = target: Gal(b1-3)GlcNAc(b1-6)[Gal(b1-3)]GalNAc
# How it was run: as §1
# Gal(b1-3)GlcNAc6S = target: Gal(b1-3)GlcNAc6S
# How it was run: as §1
# [25] = target: Gal(b1-3)[Fuc(a1-4)]GlcNAc
# How it was run: as §1
# [26] = target: Gal(b1-3)[Fuc(a1-4)]GlcNAc(b1-2)Man
# How it was run: as §1
# [27] = target: Gal(b1-3)[Fuc(a1-4)]GlcNAc(b1-2)Man(a1-3)[Gal(b1-3)[Fuc(a1-4)]GlcNAc(b1-2)Man(a1-6)]Man(b1-4)GlcNAc(b1-4)[Fuc(a1-6)]GlcNAc
# How it was run: as §1
# [28] = target: Gal(b1-3)[Fuc(a1-4)]GlcNAc(b1-3)Gal(b1-3)[Fuc(a1-4)]GlcNAc
# How it was run: as §1
# [29] = target: Gal(b1-3)[Fuc(a1-4)]GlcNAc(b1-3)Gal(b1-4)[Fuc(a1-3)]GlcNAc
# How it was run: as §1
# [30] = target: Gal(b1-3)[Fuc(a1-4)]GlcNAc(b1-6)GalNAc
# How it was run: as §1
# [31] = target: Gal(b1-3)[GlcNAc(b1-6)]GalNAc
# How it was run: as §1
# [32] = target: Gal(b1-3)[Neu5Ac(a2-6)]GalNAc
# How it was run: as §1
# [33] = target: Gal(b1-3)[Neu5Ac(a2-6)]GlcNAc(b1-4)Gal(b1-4)Glc
# How it was run: as §1
# [34] = target: Gal(b1-3)[Neu5Ac(b2-6)]GalNAc
# How it was run: as §1
# Gal(b1-4)Gal = target: Gal(b1-4)Gal
# How it was run: as §1
# [35] = target: Gal(b1-4)GalNAc(a1-3)[Fuc(a1-2)]Gal(b1-4)GlcNAc
# How it was run: as §1
# [36] = target: Gal(b1-4)GalNAc(b1-3)[Fuc(a1-2)]Gal(b1-4)GlcNAc
# How it was run: as §1
binder,measurement,setting,value
B1,glycan array binding signal (z-score),Gal(b1-2)Gal,-0.207
same,glycan array binding signal (z-score),Gal(b1-3)Gal,-0.079
same,glycan array binding signal (z-score),Gal(b1-3)Gal(b1-4)GlcNAc,-0.211
same,glycan array binding signal (z-score),Gal(b1-3)GalNAc,-0.014
same,glycan array binding signal (z-score),[1],-0.091
same,glycan array binding signal (z-score),[2],-0.113
same,glycan array binding signal (z-score),Gal(b1-3)GalNAc(b1-3)Gal,-0.233
same,glycan array binding signal (z-score),[3],-0.208
same,glycan array binding signal (z-score),[4],-0.082
same,glycan array binding signal (z-score),[5],-0.128
same,glycan array binding signal (z-score),Gal(b1-3)GlcNAc,-0.201
same,glycan array binding signal (z-score),[6],-0.292
same,glycan array binding signal (z-score),[7],-0.173
same,glycan array binding signal (z-score),Gal(b1-3)GlcNAc(b1-2)Man,-0.226
same,glycan array binding signal (z-score),[8],-0.101
same,glycan array binding signal (z-score),[9],-0.074
same,glycan array binding signal (z-score),[10],-0.024
same,glycan array binding signal (z-score),[11],-0.234
same,glycan array binding signal (z-score),[12],-0.159
same,glycan array binding signal (z-score),[13],-0.157
same,glycan array binding signal (z-score),[14],-0.219
same,glycan array binding signal (z-score),[15],-0.169
same,glycan array binding signal (z-score),[16],0.102
same,glycan array binding signal (z-score),[17],0.39
same,glycan array binding signal (z-score),[18],-0.039
same,glycan array binding signal (z-score),[19],-0.14
same,glycan array binding signal (z-score),[20],-0.148
same,glycan array binding signal (z-score),[21],-0.286
same,glycan array binding signal (z-score),[22],-0.145
same,glycan array binding signal (z-score),[23],-0.363
same,glycan array binding signal (z-score),[24],-0.291
same,glycan array binding signal (z-score),Gal(b1-3)GlcNAc6S,-0.294
same,glycan array binding signal (z-score),[25],-0.222
same,glycan array binding signal (z-score),[26],-0.31
same,glycan array binding signal (z-score),[27],0.036
same,glycan array binding signal (z-score),[28],-0.185
same,glycan array binding signal (z-score),[29],-0.279
same,glycan array binding signal (z-score),[30],-0.324
same,glycan array binding signal (z-score),[31],-0.112
same,glycan array binding signal (z-score),[32],-0.256
same,glycan array binding signal (z-score),[33],-0.25
same,glycan array binding signal (z-score),[34],-0.294
same,glycan array binding signal (z-score),Gal(b1-4)Gal,-0.349
same,glycan array binding signal (z-score),[35],-0.223
same,glycan array binding signal (z-score),[36],-0.26
